From the supplement of paper PMC9151546
Repeats are few or missing, and single values can be far off.

Tests used:
[1] = test system: CHO-K1; assay: micronucleus frequency (% of nucleated events); higher = more micronuclei (genotoxic)
[2] = test system: CHO-K1; assay: hypodiploid nuclei frequency (% of nucleated events); higher = more hypodiploid events (aneugenic)
Experimental: (§1)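 Flow-cytometric in vitro micronucleus assay (Litron MicroFlow) in CHO-K1 cells in 96-well plates, 19 concentrations (4.5-200 µM, n=1 per concentration). Without S9, cells were exposed for 24 h and sampled at 48 h. With Aroclor 1254-induced rat liver S9, cells were exposed for 3-4 h and sampled at 27-28 h. Read-outs are %MN and %hypodiploid nuclei relative to nucleated events, and relative survival as the nuclei-to-bead ratio versus the 1% DMSO vehicle control (x100).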

[3] = test system: CHO-K1; assay: relative survival (nuclei to bead ratio vs DMSO control) (% of vehicle control); higher = more surviving cells
Experimental: as §1
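For hypodiploid nuclei frequency (% of nucleated events) in this document: hypodiploid nuclei gated on a flow cytometer with 488 nm excitation after SYTOX Green staining, cultures at 37 °C, positive controls vinblastine without S9 and cyclophosphamide with S9.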
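For micronucleus frequency (% of nucleated events) in this document: cells lysed with nuclei stained by SYTOX Green, then micronucleus-gated events counted against nucleated events by flow cytometry with 488 nm excitation.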
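For relative survival (nuclei to bead ratio vs DMSO control) in this document: Lysed-cell nuclei stained with SYTOX Green and counted against counting beads by flow cytometry at 488 nm excitation, with vinblastine (no S9) and cyclophosphamide (plus S9) as positive controls.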

CCOC(=O)c1ccccc1C(=O)OCC [Diethyl phthalate]
Conditions	hypodiploid nuclei frequency, [2] [%]	micronucleus frequency, [1] [%]	relative survival, [3]
concentration: 4.5 (µM), S9 metabolic activation: with S9, exposure time: 3-4 hours	0.38	2.46	89.8
concentration: 4.5 (µM), S9 metabolic activation: without S9, exposure time: 24 hours	0.88	1.76	110
concentration: 5.63 (µM), S9 metabolic activation: with S9, exposure time: 3-4 hours	0.42	1.8	86
concentration: 5.63 (µM), S9 metabolic activation: without S9, exposure time: 24 hours	0.98	1.84	115
concentration: 7.04 (µM), S9 metabolic activation: with S9, exposure time: 3-4 hours	0.26	2.66	89.6
concentration: 7.04 (µM), S9 metabolic activation: without S9, exposure time: 24 hours	0.78	1.58	120
concentration: 8.8 (µM), S9 metabolic activation: with S9, exposure time: 3-4 hours	0.34	1.6	66.5
concentration: 8.8 (µM), S9 metabolic activation: without S9, exposure time: 24 hours	0.88	1.94	105
concentration: 11 (µM), S9 metabolic activation: with S9, exposure time: 3-4 hours	0.26	1.84	78.6
concentration: 11 (µM), S9 metabolic activation: without S9, exposure time: 24 hours	0.98	1.66	112
concentration: 13.7 (µM), S9 metabolic activation: with S9, exposure time: 3-4 hours	0.34	2.08	81.1
concentration: 13.7 (µM), S9 metabolic activation: without S9, exposure time: 24 hours	0.76	1.7	107
concentration: 17.2 (µM), S9 metabolic activation: with S9, exposure time: 3-4 hours	0.12	1.24	94.5
concentration: 17.2 (µM), S9 metabolic activation: without S9, exposure time: 24 hours	0.86	1.46	118
concentration: 21.5 (µM), S9 metabolic activation: with S9, exposure time: 3-4 hours	0.32	2.16	83.8
concentration: 21.5 (µM), S9 metabolic activation: without S9, exposure time: 24 hours	0.88	1.76	105
concentration: 26.8 (µM), S9 metabolic activation: with S9, exposure time: 3-4 hours	0.3	2.16	95.1
concentration: 26.8 (µM), S9 metabolic activation: without S9, exposure time: 24 hours	0.76	1.66	101
concentration: 33.6 (µM), S9 metabolic activation: with S9, exposure time: 3-4 hours	0.32	2.66	101
concentration: 33.6 (µM), S9 metabolic activation: without S9, exposure time: 24 hours	0.86	1.82	104
concentration: 41.9 (µM), S9 metabolic activation: with S9, exposure time: 3-4 hours	0.24	1.92	88.2
concentration: 41.9 (µM), S9 metabolic activation: without S9, exposure time: 24 hours	1.06	1.62	89.8
concentration: 52.4 (µM), S9 metabolic activation: with S9, exposure time: 3-4 hours	0.24	2.68	81.3
concentration: 52.4 (µM), S9 metabolic activation: without S9, exposure time: 24 hours	0.96	2.32	93.8
concentration: 65.5 (µM), S9 metabolic activation: with S9, exposure time: 3-4 hours	0.38	1.76	79.2
concentration: 65.5 (µM), S9 metabolic activation: without S9, exposure time: 24 hours	0.96	1.9	96.9
concentration: 81.9 (µM), S9 metabolic activation: with S9, exposure time: 3-4 hours	0.2	2.22	92.2
concentration: 81.9 (µM), S9 metabolic activation: without S9, exposure time: 24 hours	1.28	2.18	109
concentration: 102 (µM), S9 metabolic activation: with S9, exposure time: 3-4 hours	0.26	2.26	79.2
concentration: 102 (µM), S9 metabolic activation: without S9, exposure time: 24 hours	1.44	2.34	94.3
concentration: 128 (µM), S9 metabolic activation: with S9, exposure time: 3-4 hours	0.16	2.7	82.6
concentration: 128 (µM), S9 metabolic activation: without S9, exposure time: 24 hours	1.52	1.96	90.5
concentration: 160 (µM), S9 metabolic activation: with S9, exposure time: 3-4 hours	0.42	1.86	83.7
concentration: 160 (µM), S9 metabolic activation: without S9, exposure time: 24 hours	2.22	2.84	127
concentration: 200 (µM), S9 metabolic activation: with S9, exposure time: 3-4 hours	0.18	2.36	78.6
concentration: 200 (µM), S9 metabolic activation: without S9, exposure time: 24 hours	2.22	2.78	89.4

COC(=O)CCCCC(=O)OC [Dimethyl adipate]
Conditions	hypodiploid nuclei frequency, [2] [%]	micronucleus frequency, [1] [%]	relative survival, [3]
concentration: 4.5 (µM), S9 metabolic activation: with S9, exposure time: 3-4 hours	0.28	1.24	89.7
concentration: 4.5 (µM), S9 metabolic activation: without S9, exposure time: 24 hours	0.84	1.86	135
concentration: 5.63 (µM), S9 metabolic activation: with S9, exposure time: 3-4 hours	0.24	1.18	108
concentration: 5.63 (µM), S9 metabolic activation: without S9, exposure time: 24 hours	0.64	2.16	139
concentration: 7.04 (µM), S9 metabolic activation: with S9, exposure time: 3-4 hours	0.3	1	101
concentration: 7.04 (µM), S9 metabolic activation: without S9, exposure time: 24 hours	0.46	1.26	137
concentration: 8.8 (µM), S9 metabolic activation: with S9, exposure time: 3-4 hours	0.22	1.12	105
concentration: 8.8 (µM), S9 metabolic activation: without S9, exposure time: 24 hours	0.64	2.84	153
concentration: 11 (µM), S9 metabolic activation: with S9, exposure time: 3-4 hours	0.3	1.42	112
concentration: 11 (µM), S9 metabolic activation: without S9, exposure time: 24 hours	0.48	2.5	157
concentration: 13.7 (µM), S9 metabolic activation: with S9, exposure time: 3-4 hours	0.16	0.78	97
concentration: 13.7 (µM), S9 metabolic activation: without S9, exposure time: 24 hours	0.6	2.26	113
concentration: 17.2 (µM), S9 metabolic activation: with S9, exposure time: 3-4 hours	0.2	0.98	107
concentration: 17.2 (µM), S9 metabolic activation: without S9, exposure time: 24 hours	0.64	2.5	135
concentration: 21.5 (µM), S9 metabolic activation: with S9, exposure time: 3-4 hours	0.16	1.08	80.7
concentration: 21.5 (µM), S9 metabolic activation: without S9, exposure time: 24 hours	0.8	2.52	111
concentration: 26.8 (µM), S9 metabolic activation: with S9, exposure time: 3-4 hours	0.22	1.16	150
concentration: 26.8 (µM), S9 metabolic activation: without S9, exposure time: 24 hours	0.74	3.34	97.8
concentration: 33.6 (µM), S9 metabolic activation: with S9, exposure time: 3-4 hours	0.14	1.12	121
concentration: 33.6 (µM), S9 metabolic activation: without S9, exposure time: 24 hours	0.72	2.06	107
concentration: 41.9 (µM), S9 metabolic activation: with S9, exposure time: 3-4 hours	0.22	1.3	87.5
concentration: 41.9 (µM), S9 metabolic activation: without S9, exposure time: 24 hours	0.62	1.76	106
concentration: 52.4 (µM), S9 metabolic activation: with S9, exposure time: 3-4 hours	0.2	1.76	97.2
concentration: 52.4 (µM), S9 metabolic activation: without S9, exposure time: 24 hours	0.46	1.44	86.2
concentration: 65.5 (µM), S9 metabolic activation: with S9, exposure time: 3-4 hours	0.18	1.62	114
concentration: 65.5 (µM), S9 metabolic activation: without S9, exposure time: 24 hours	1.2	1.58	102
concentration: 81.9 (µM), S9 metabolic activation: with S9, exposure time: 3-4 hours	0.3	1.72	124
concentration: 81.9 (µM), S9 metabolic activation: without S9, exposure time: 24 hours	0.84	2.16	92.7
concentration: 102 (µM), S9 metabolic activation: with S9, exposure time: 3-4 hours	0.16	1.78	110
concentration: 102 (µM), S9 metabolic activation: without S9, exposure time: 24 hours	0.86	1.84	107
concentration: 128 (µM), S9 metabolic activation: with S9, exposure time: 3-4 hours	0.14	1.22	82.2
concentration: 128 (µM), S9 metabolic activation: without S9, exposure time: 24 hours	1.22	2.46	73.6
concentration: 160 (µM), S9 metabolic activation: with S9, exposure time: 3-4 hours	0.18	1.76	103
concentration: 160 (µM), S9 metabolic activation: without S9, exposure time: 24 hours	1.1	3.8	101
concentration: 200 (µM), S9 metabolic activation: with S9, exposure time: 3-4 hours	0.36	2.5	90.3
concentration: 200 (µM), S9 metabolic activation: without S9, exposure time: 24 hours	1.5	3.36	78.5
